± gives the uncertainty stated by the source. Over roughly 9,900 compounds, “viability index relative to DMSO control” has its median near 1; the lowest 2% begin near 0.85. The list shows a part of the results.
Tested on: Plasmodium falciparum NF54 stage V gametocytes
Assay: viability index relative to DMSO control (fraction); higher = less gametocyte killing
Details: 2.5 µM, library set: Broad Institute DOS, incubation time: 72 h
How it was run: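 P. falciparum NF54 stage V gametocytes in serum-free screening medium (0.75% gametocytemia, 1.25% hematocrit, 10 µl) were incubated with compound at 2.5 µM in 1,536-well plates for 72 hr at 37°C under low oxygen. Then 3 µl of 2.5 µM MitoTracker Red CMXRos plus 0.13% saponin was added for one to two hours. One field per well was imaged, 20–70 µm2 red particles were counted, and the viability index was the count divided by the plate mean of DMSO wells.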

| SMILES | viability index |
| --- | --- |
| N#C[C@H]1[C@H](c2ccc(-c3cccnc3)cc2)[C@@H](CO)N1C(=O)C1CCOCC1 | 1.12 ± 0.049 |
| O=S(=O)(c1cccc(F)c1)N1[C@@H]2CNC[C@H]1[C@H]2c1ccc(-c2ccccc2F)cc1 | 1.06 ± 0.051 |
| CO[C@H](CN(C)S(=O)(=O)c1ccc(C)cc1)[C@@H](C)CN(C(=O)Nc1ccccc1F)[C@@H](C)CO | 1.01 ± 0.032 |
| COc1ccc2c3c([nH]c2c1)[C@H](CO)N(C[C@]31CN(C1)C(=O)NC(C)C)C(=O)C1CCOCC1 | 1.04 ± 0.12 |
| C[C@@H]1CCCCO[C@@H](CN(C)Cc2ccncc2)[C@@H](C)CN([C@H](C)CO)C(=O)c2cc(NS(=O)(=O)c3ccc(Cl)cc3)ccc2O1 | 1.08 ± 0.021 |
| C[C@H]1CCCCO[C@H](CN(C)S(=O)(=O)c2ccc(F)cc2)[C@@H](C)CN([C@@H](C)CO)C(=O)c2cc(N(C)C)ccc2O1 | 1.09 ± 0.17 |
| N#Cc1cccc(-c2ccc([C@@H]3[C@@H](CO)N4CCCCN(Cc5ccccc5F)C[C@@H]34)cc2)c1 | 0.943 ± 0.044 |
| CN(C)C(=O)C[C@@H]1C[C@@H]2c3cc(NC(=O)c4cccnc4)ccc3O[C@@H]2[C@@H](CO)O1 | 1.044 ± 0.0079 |
| Cc1ccc(S(=O)(=O)Nc2ccc3c(c2)CC(=O)N([C@@H](C)CO)C[C@H](C)[C@@H](CN(C)S(=O)(=O)c2ccccc2)O3)cc1 | 0.909 ± 0.043 |
| Cc1ccccc1-c1ccc([C@@H]2[C@@H]3CN(Cc4ccc5c(c4)OCO5)C[C@H]2N3)cc1 | 1.04 ± 0.061 |
| O=C(Nc1ccc2c(c1)[C@H]1C[C@H](CC(=O)N3CCOCC3)O[C@H](CO)[C@H]1O2)Nc1ccccc1F | 1.1 ± 0.055 |
| O=C(Cc1cccnc1)N1[C@H](CO)[C@H](c2ccccc2)[C@H]1CNCC1CCC1 | 1.05 ± 0.069 |
| CCCC#Cc1ccc([C@H]2[C@H](C#N)N(C(=O)CN3CCOCC3)[C@H]2CO)cc1 | 1.1 ± 0.048 |
| COc1ccc2c3c([nH]c2c1)[C@H](CO)N(C[C@]31CCN(CC1)S(=O)(=O)c1cccc(C)c1)C(=O)Nc1cccc(F)c1 | 0.97 ± 0.026 |
| O=C(C[C@@H]1CC[C@@H]2[C@H](COC[C@H](O)CN2C(=O)c2ccncc2)O1)NCc1cc(F)cc(F)c1 | 1.07 ± 0.017 |
| COc1ccccc1C(=O)N1C[C@@H]2[C@H](c3ccccc31)[C@H](CO)N2CC1CCCC1 | 0.981 ± 0.082 |
| CC(C)(C)S(=O)N1Cc2cc(C(=O)NCc3ccc4c(c3)OCO4)nc(-c3cccc(-c4cccc(F)c4)c3)c2[C@@H]1CCO (stereo partly specified) | 1.04 ± 0.015 |
| C[C@H](CO)N1C[C@H](C)[C@@H](CN(C)S(=O)(=O)c2ccccc2)OCCCC[C@H](C)Oc2ccc(NC(=O)Nc3ccc4c(c3)OCO4)cc2C1=O | 1.01 ± 0.025 |
| C[C@H](CO)N1C[C@H](C)[C@H](CN(C)C(=O)Nc2ccc(F)cc2)Oc2ccc(NC(=O)c3ccncc3)cc2CC1=O | 0.973 ± 0.019 |
| CO[C@H]1CC[C@H]2CCOc3ccc(C#N)cc3C(=O)N(C)CC3(CCCCC3)CC(=O)N(C)C[C@H]1O2 | 1.04 ± 0.046 |
| COCC(=O)N1CC2(C1)[C@H](c1ccc(-c3cccc(F)c3)cc1)[C@H](CO)N2C(=O)C1CC1 | 1 ± 0.084 |
| COc1ccc(S(=O)(=O)Nc2ccc3c(c2)C(=O)N([C@@H](C)CO)C[C@@H](C)[C@@H](CN(C)C(=O)Nc2c(C)noc2C)OCCCC[C@@H](C)O3)cc1 | 1.14 ± 0.11 |

| SMILES | viability index |
| --- | --- |
| COc1ccc2c3c([nH]c2c1)[C@H](CO)N(C[C@]31CN(Cc2cc(F)ccc2F)C1)C(=O)Nc1ccc(F)cc1 | 0.973 ± 0.042 |
| COc1ccc(S(=O)(=O)N(C)C[C@@H]2OCCCC[C@@H](C)Oc3ccc(NC(=O)Cc4ccccc4)cc3C(=O)N([C@@H](C)CO)C[C@@H]2C)cc1 | 1.01 ± 0.16 |
| C/C=C/c1ccc([C@H]2[C@H](CO)N(C(C)=O)[C@H]2CN(CC)C(=O)CN(C)C)cc1 | 1.102 ± 0.0012 |
| COC(=O)C[C@@H]1CC[C@@H]2[C@@H](COc3ccc(NC(=O)Nc4c(C)noc4C)cc3C(=O)N2C)O1 | 0.921 ± 0.1 |
| CO[C@H]1CC[C@H]2CCOc3c(C#N)cccc3C(=O)N(C)C[C@@H](c3ccccc3)CC(=O)N(C)C[C@@H]1O2 | 1.02 ± 0.11 |
| Cc1ccc(S(=O)(=O)N2C[C@@H](O)COC[C@@H]3O[C@@H](CC(=O)NCc4ccc5c(c4)OCO5)CC[C@H]32)cc1 | 1.08 ± 0.07 |
| C[C@H]1CN([C@@H](C)CO)S(=O)(=O)c2ccc(C#Cc3cccc(F)c3)cc2O[C@H]1CN(C)S(=O)(=O)c1cn(C)cn1 | 1.04 ± 0.054 |
| CN1C(=O)c2cc(NC(=O)Nc3ccccc3Cl)ccc2OC[C@H]2O[C@@H](CC(=O)O)CC[C@H]21 | 0.985 ± 0.12 |
| CCS(=O)(=O)Nc1ccc2c(c1)C(=O)N(C)[C@H]1CC[C@H](CC(=O)N[C@H]3CCN(Cc4ccccc4)C3)O[C@H]1CO2 | 1.09 ± 0.17 |
| COc1ccc(C(=O)N2C[C@H]3[C@@H](c4ccccc42)[C@H](CO)N3Cc2ccccc2Cl)cc1 | 1.02 ± 0.0079 |
| C[C@@H]1CCCCO[C@@H](CN(C)C(=O)CCC(F)(F)F)[C@H](C)CN([C@H](C)CO)C(=O)c2cc(NC(=O)C3CCCCC3)ccc2O1 | 1.09 ± 0.032 |
| O=C(C[C@H]1C[C@H]2c3cc(NS(=O)(=O)c4ccccc4)ccc3O[C@H]2[C@H](CO)O1)NCC(F)(F)F | 1.15 ± 0.062 |
| COc1cccc(-c2ccc([C@H]3[C@@H](CO)N(C(=O)Cc4ccncc4)[C@H]3C#N)cc2)c1 | 1.02 ± 0.044 |
| Cc1noc(C)c1NC(=O)Nc1cccc2c1O[C@H](CN(C)Cc1ccc(C(=O)Nc3ccccc3N)cc1)[C@@H](C)CN([C@H](C)CO)C2=O | 0.961 ± 0.023 |
| O=C(C[C@H]1C=C[C@@H](NC(=O)c2ccncc2)[C@@H](CO)O1)NCC1CC1 | 1.08 ± 0.03 |
| O=C(C[C@H]1CC[C@@H]2[C@H](COC[C@@H](O)CN2Cc2nccs2)O1)NCc1ccccc1Cl | 1 ± 0.026 |
| COc1ccccc1C(=O)N1C[C@H]2[C@@H](c3ccccc31)[C@@H](CO)N2C(=O)Cc1ccccc1 | 1.07 ± 0.015 |
| CC(C)COC(=O)N(C)C[C@@H]1OCc2ccccc2-c2ccccc2C(=O)N([C@H](C)CO)C[C@@H]1C | 0.982 ± 0.061 |
| C[C@@H](NC(=O)C[C@@H]1CC[C@H]2[C@@H](COC[C@H](O)CN2C(=O)Nc2cccc(Cl)c2)O1)c1ccccc1 | 1.06 ± 0.028 |
| C/C=C/c1ccc2n(c1=O)C[C@H]1[C@H](CO)[C@@H](C(=O)N(C)C)N(C(=O)CC)[C@@H]21.C/C=C\c1ccc2n(c1=O)C[C@H]1[C@H](CO)[C@@H](C(=O)N(C)C)N(C(=O)CC)[C@@H]21 | 1.059 ± 0.005 |
| CN(C)C(=O)c1cccc(-c2ccc([C@H]3[C@@H]4CN(C(=O)CN5CCOCC5)C[C@H]3N4)cc2)c1 | 1.08 ± 0.014 |
| OC[C@@H]1[C@H](c2ccc(Br)cc2)[C@H]2CNCCCCN12 | 1.05 ± 0.041 |

| SMILES | viability index |
| --- | --- |
| COCCN(C[C@H]1N[C@H](CO)[C@@H]1c1ccc(-c2cccc(C#N)c2)cc1)C(C)=O | 1.06 ± 0.031 |
| CCN(C[C@@H]1[C@H](c2ccccc2)[C@@H](CO)N1CC1CC1)C(=O)c1ccccn1 | 1.05 ± 0.019 |
| O=C(NC1CCCC1)[C@H]1[C@H](CO)[C@H]2Cn3c(cccc3=O)[C@H]2N1CCc1ccccc1 | 1.013 ± 0.0097 |
| CO[C@@H]1CN(C)C(=O)c2cc(NS(=O)(=O)CC(F)(F)F)ccc2OC[C@H](C)NC[C@H]1C | 1.05 ± 0.029 |
| Cc1noc(C)c1C(=O)N(C)C[C@H]1OCc2ccccc2-c2ccccc2C(=O)N([C@@H](C)CO)C[C@H]1C | 0.977 ± 0.15 |
| CN1CCN(C(=O)C[C@@H]2CC[C@H]3[C@@H](COC[C@@H](O)CN3C(=O)Nc3ccc4c(c3)OCO4)O2)CC1 | 0.9371 ± 0.00097 |
| COc1ccc(C(=O)N2C[C@H]3[C@@H](c4ccccc42)[C@H](CO)N3C(=O)Cc2ccccn2)cc1 | 0.999 ± 0.18 |
| C[C@@H]1CN([C@@H](C)CO)C(=O)c2cc(NC(=O)C3CCCCC3)ccc2O[C@@H]1CN(C)C(=O)Nc1ccc(C(F)(F)F)cc1 | 0.967 ± 0.036 |
| CN(C)C(=O)c1ccc(-c2ccccc2[C@H]2[C@@H](C#N)N(C(=O)C3CC3)[C@@H]2CO)cc1 | 1.13 ± 0.059 |
| Cc1noc(C)c1S(=O)(=O)Nc1ccc2c(c1)C(=O)N([C@@H](C)CO)C[C@H](C)[C@@H](CN(C)Cc1ccc(C(=O)O)cc1)OCCCC[C@H](C)O2 | 1.01 ± 0.16 |
| COc1ccc(NC(=O)N(C)C[C@@H]2OCCCC[C@H](C)Oc3ccc(NC(=O)c4ccncc4)cc3C(=O)N([C@@H](C)CO)C[C@H]2C)cc1 | 1.12 ± 0.052 |
| Cn1cnc(CCNC(=O)C[C@H]2CC[C@@H]3[C@H](COC[C@@H](O)CN3C(=O)Nc3ccc(C(F)(F)F)cc3)O2)c1 | 1.04 ± 0.043 |
| C[C@@H](NC(=O)C[C@@H]1C=C[C@H](NS(=O)(=O)c2cccc(F)c2)[C@H](CO)O1)c1ccccc1 | 1.16 ± 0.083 |
| O=C(C[C@H]1CC[C@@H]2[C@H](COC[C@@H](O)CN2CCC(F)(F)F)O1)NCc1ccc2c(c1)OCO2 | 0.951 ± 0.064 |
| C[C@@H]1CN([C@@H](C)CO)C(=O)c2cc(NC(=O)Cn3cnnn3)ccc2O[C@@H]1CN(C)C(=O)Nc1ccc2c(c1)OCO2 | 1.02 ± 0.15 |
| CN1CCN(C(=O)C[C@@H]2CC[C@H]3[C@@H](COC[C@@H](O)CN3C(=O)c3ccccc3F)O2)CC1 | 1.06 ± 0.046 |
| COc1ccccc1-c1ccc2c(c1)O[C@H](CN(C)CC1CCOCC1)[C@@H](C)CN([C@@H](C)CO)S2(=O)=O | 1.01 ± 0.079 |
| O=C(NCC1CC1)[C@@H]1[C@@H](CO)[C@@H]2Cn3c(ccc(C4=CCCC4)c3=O)[C@@H]2N1C(=O)C1CC1 | 1.05 ± 0.063 |
| CO[C@@H]1CN(C)C(=O)c2cc(NC(=O)CC(F)(F)F)ccc2OC[C@H](C)N(CC2CC2)C[C@H]1C | 1.11 ± 0.014 |
| CC(C)NC(=O)N1CC[C@@H]2[C@H]1c1cc(C#Cc3ccccc3)ccc1N(C)[C@@H]2CO | 1.11 ± 0.056 |
| C[C@H]1CN([C@@H](C)CO)C(=O)c2cc(NC(=O)Cn3cnnn3)ccc2O[C@H]1CN(C)C(=O)Nc1ccc2c(c1)OCO2 | 1.035 ± 0.0075 |
| C[C@H](CO)N1C[C@H](C)[C@H](CN(C)S(=O)(=O)c2ccc(F)cc2)OCCCC[C@H](C)Oc2ccc(NC(=O)CCCCCC(=O)Nc3ccccc3N)cc2C1=O | 0.982 ± 0.12 |
